Laboratory results reported in PubChem BioAssay AID2101 (National Center for Advancing Translational Sciences (NCATS), 2009).
In all, about 330,000 compounds went through this assay and about 300 (0.091%) were called active. The shares of active, inactive and inconclusive entries below differ from those in the screen. Calls come from the whole dose curve; as a rule, active = well fitted inhibition curve with a large enough effect; inconclusive = small, poorly fitted or top-dose-only effect, or effect the other way, or another doubt; inactive = no such curve, though single readings can be large or run the other way. Potencies of inconclusive entries are left out as doubtful fits.

biological target: Lysosomal acid glucosylceramidase (Homo sapiens) (UniProt P04062); assay: qHTS Assay for Inhibitors and Activators of N370S glucocerebrosidase as a Potential Chaperone Treatment of Gaucher Disease; details: N370S GC spleen homogenate, 4MU-glucoside fluorescence; activity change, negative = inhibition: at 59.4 µM (top of the series) unless noted;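 for activity change, negative = inhibition: 0% = full enzyme activity and -100% = no enzyme basal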
Potency is the fitted concentration of half-maximal effect.

Structure (SMILES) | Potency | activity change, negative = inhibition
Cc1c(NC(=O)CSc2ccccc2C(=O)Nc2cccnc2)c(=O)n(-c2ccccc2)n1C | inconclusive [inhibitor, single point] | 
Cc1ccc(NC(=O)COc2ccccc2C(=O)Nc2ccccc2)cc1Cl | inconclusive [activator, full curve] | 
CN1CCc2nc(NC(=O)c3cccc(S(=O)(=O)N4CCc5ccccc54)c3)sc2C1 | inactive | 
COc1ccc(-c2coc3cc(O)ccc3c2=O)c(O)c1O | inactive | 
COc1ccc2oc(C(=O)N(C)CCOc3ccccc3)c(C)c2c1 | inactive | 
CCN(CC)S(=O)(=O)c1ccc(N2CCOCC2)c(NC(=O)c2cc3ccccc3oc2=O)c1 | inconclusive [activator, full curve] | 
Cc1cccc(C)c1NC(=O)CSCC(=O)c1ccc(O)c(O)c1 | inactive | 
COC(=O)c1ccccc1NC(=S)N(Cc1ccc2c(c1)OCO2)Cc1cc2ccc(OC)cc2[nH]c1=O |  | inconclusive: 31.9% [activator]
COC(=O)c1cnc(SCC(=O)c2ccccc2)n1C | inactive | 
COc1ccccc1NC(=S)N(Cc1ccco1)Cc1cc2cc(C)c(C)cc2[nH]c1=O | inconclusive [activator, single point] | 
Cc1ccc(NC(=O)COc2ccccc2C=O)cc1Cl | inconclusive [activator, partial curve] | 
COCCOC(=O)C1=C(C)NC(C)=C(C(=O)OC(C)C)C1c1cccc([N+](=O)[O-])c1 (centres undefined) | inactive | 
NC(=O)c1cc(N2C(=O)C=CC2=O)ccc1Cl | inactive | 
CS(=O)(=O)c1ccccc1C(=O)Nc1ccc(-c2nc3ccccc3[nH]2)cc1 | inactive | 
O=C(NCCCN1CCOCC1)c1cc(-c2ccc(Cl)s2)nc2ccccc12 | inconclusive [activator, single point] | 
O=C(CNC(=O)c1ccccc1)OCC(=O)c1cccs1 | inactive | 
CC(=O)c1cc2cc(O)ccc2o1 | inconclusive [activator, partial curve] | 
CCCCn1nc(C(=O)N[C@@H](CCSC)c2nc3ccccc3[nH]2)c2ccccc2c1=O | inconclusive [activator, single point] | 
Nc1nc(Br)c2ccccc2c1-c1ccccc1 | inconclusive [activator, single point] | 
Cc1ccc(NC(=O)Nc2cccs2)nc1 | inconclusive [activator, partial curve] | 
CCOc1cccc(/C=C2\NC(=S)N(c3ccccc3)C2=O)c1O | inconclusive [inhibitor, single point] | 
COc1cc(OC)cc(C(=O)NC(=S)N(Cc2ccccc2)C(C)C)c1 | inconclusive [activator, single point] | 

Structure (SMILES) | Potency | activity change, negative = inhibition
COc1cccc(NC(=O)CSc2nnc(-c3cc(C)n(-c4ccccc4)c3C)o2)c1 | inconclusive [activator, partial curve] | 
COc1ccc(NC(=O)C2CCN(c3cc(C)nc(-c4ccccc4)n3)CC2)cc1 | inconclusive [inhibitor, full curve] | 
CN(C)c1ccnc(SCc2ccccc2Cl)c1C#N | inconclusive [activator, partial curve] | 
Cc1ccc(C(=O)N/C(=C\c2cn(S(=O)(=O)N(C)C)c3ccccc23)C(=O)NCCCN2CCOCC2)cc1 | inconclusive [inhibitor, single point] | 
COCCn1c(NC(=S)NC(=O)C2CC2)cc(=O)[nH]c1=O | inactive | 
O=C(Nc1cc(F)ccc1F)C1CCCN(c2ncnc3c2nc2n3CCCCC2)C1 (centres undefined) | inconclusive [activator, single point] | 
COc1ccc(Nc2nnc(-c3ccc(O)cc3)c3ccccc23)cc1C(N)=O | inconclusive [inhibitor, full curve, poor fit] | 
Cc1cc(C)cc(N(CC(=O)NC2CCC(C)CC2)S(=O)(=O)c2c(C)noc2C)c1 (centres undefined) | inconclusive [activator, partial curve] | 
CCOC(=O)c1[nH]c2ccc(F)cc2c1NC(=O)c1ccccc1C(=O)O | inconclusive [activator, single point] | 
CCc1ccc(C(=O)NNc2ccc(Cl)cc2)cc1 |  | inconclusive: 35.5% [activator]
CCCn1c(N)c(C(=O)COc2ccc(Br)cc2F)c(=O)n(C)c1=O | inconclusive [activator, partial curve, poor fit] | 
CSCC[C@H](NC(=O)[C@H](CC(C)C)N(C)C(=O)[C@@H]1CCCN1C(=O)[C@H](Cc1ccccc1)NC(=O)[C@H](Cc1ccccc1)NC(=O)CCC(C)N)C(=O)O (some centres undefined) | inactive | 
CC1=CC=CC2=NC(=O)CC(C)(C(=O)O)N12 (centres undefined) | inactive | 
CC1=C(C(=O)NC2CCCC(C)C2C)C2(CCCCC2)OC1=O (centres undefined) |  | inconclusive: 27% [activator]
CC(C)(C)OC(=O)N[C@@H](Cc1ccccc1)c1nnc(SCC(N)=O)o1 | inactive | 
CC1=C(OC(=O)C(C)(C)C)C(C)(C)C(c2ccccc2)OC1=O (centres undefined) | inconclusive [inhibitor, partial curve] | 
Nc1c(S(=O)(=O)c2cccs2)c2nc3ccccc3nc2n1CC1CCCO1 (centres undefined) | inconclusive [activator, partial curve] | 
COc1ccc(-c2oc3ncnc(NCCCN4CCOCC4)c3c2-c2ccc(OC)cc2)cc1 | inconclusive [inhibitor, single point] | 
Cc1c(CC(=O)NCCCO)c(=O)oc2cc3c(cc12)CCC(C)(C)O3 | inconclusive [activator, partial curve] | 
COc1ccccc1CNC(=O)Nc1cccs1 | inactive | 
C=CC[n+]1c(/C=C/c2ccc(OC(C)=O)c(OC)c2)ccc2ccccc21 | inconclusive [inhibitor, partial curve, poor fit] | 
Cc1ccc(C2C3=C(CC(C)(C)CC3=O)Nc3onc(C)c32)cc1 (centres undefined) | inconclusive [inhibitor, single point] | 
